In PMC4336329 (PLoS ONE, 2015):
About 14,000 (4.5%) of roughly 310,000 compounds showed an effect of 50% or more. The effect is printed as a negative number. This is one part of the list.

Each compound was assayed against human ether-à-go-go-related gene (hERG) potassium channel (human, UniProt Q12809) (assay: primary screen, population patch clamp on CHO cells stably expressing hERG).
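Note: peak tail current of the secondary pulse compared with the same well before compound.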

human ether-à-go-go-related gene (hERG) potassium channel, sequence (Q12809 whole entry, looked up): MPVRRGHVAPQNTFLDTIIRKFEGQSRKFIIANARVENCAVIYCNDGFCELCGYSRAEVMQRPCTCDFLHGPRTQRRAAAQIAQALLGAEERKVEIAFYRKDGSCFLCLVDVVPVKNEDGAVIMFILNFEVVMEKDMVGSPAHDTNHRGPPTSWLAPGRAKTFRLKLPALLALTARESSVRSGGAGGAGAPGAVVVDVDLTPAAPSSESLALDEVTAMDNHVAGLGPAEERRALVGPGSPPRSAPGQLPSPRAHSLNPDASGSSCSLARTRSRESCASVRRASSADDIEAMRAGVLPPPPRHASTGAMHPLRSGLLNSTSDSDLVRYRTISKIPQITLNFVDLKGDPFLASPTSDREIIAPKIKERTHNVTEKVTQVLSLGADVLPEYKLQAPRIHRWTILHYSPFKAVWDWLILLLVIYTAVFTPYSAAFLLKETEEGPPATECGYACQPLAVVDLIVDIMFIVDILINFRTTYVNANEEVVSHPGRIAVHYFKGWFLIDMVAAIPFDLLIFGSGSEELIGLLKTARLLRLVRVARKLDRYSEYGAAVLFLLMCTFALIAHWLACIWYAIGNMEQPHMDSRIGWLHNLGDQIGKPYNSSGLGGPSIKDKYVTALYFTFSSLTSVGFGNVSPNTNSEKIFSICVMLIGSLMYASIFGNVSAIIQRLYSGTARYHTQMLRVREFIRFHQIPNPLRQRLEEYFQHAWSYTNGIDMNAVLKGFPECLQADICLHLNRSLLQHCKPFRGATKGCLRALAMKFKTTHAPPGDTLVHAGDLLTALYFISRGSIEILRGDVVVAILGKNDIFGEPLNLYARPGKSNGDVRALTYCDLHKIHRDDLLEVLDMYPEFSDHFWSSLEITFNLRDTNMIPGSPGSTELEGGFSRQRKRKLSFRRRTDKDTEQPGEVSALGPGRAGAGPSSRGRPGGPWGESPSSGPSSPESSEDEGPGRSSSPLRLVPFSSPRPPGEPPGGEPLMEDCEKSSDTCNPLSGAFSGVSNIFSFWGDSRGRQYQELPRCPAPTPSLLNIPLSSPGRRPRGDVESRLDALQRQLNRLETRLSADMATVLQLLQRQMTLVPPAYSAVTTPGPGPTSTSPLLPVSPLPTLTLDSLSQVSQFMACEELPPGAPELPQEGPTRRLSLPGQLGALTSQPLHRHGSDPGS

First: Cc1ccc(-n2[nH]c(C)c(C=Nc3ccc4[nH]c(=O)[nH]c4c3)c2=O)cc1C
Second: CCCN1C(=O)c2ccc(C(=O)Nc3cc(C)ccc3O)cc2C1=O
The “hERG current change (%, negative = inhibition) at 10uM” value of the first is lower: 8.38% for the first, 16.9% for the second.

Compared with `COCC(C)n1c(C)cc(C(=O)CSc2nnnn2C2CCCC2)c1C` (centres unmarked), `COc1cc2c(C(=O)N3CCN(C4CCCCC4)CC3)cn(CC(C)C)c(=O)c2cc1OC` is lower in “hERG current change (%, negative = inhibition) at 10uM” value: -33.2% for the first, -63.3% for the second.

Going from `COc1ccc2cc(/C=N/NC(=O)CN(c3ccccc3C)S(=O)(=O)c3ccccc3)c(Cl)nc2c1` to `COc1ccc(C(=O)/C=C/Nc2ccc(S(=O)(=O)Nc3ncccn3)cc2)cc1`, the “hERG current change (%, negative = inhibition) at 10uM” value rises from -4.89% to 9.75%.

First: Cc1cccc(NS(=O)(=O)c2ccc(-c3cnc(C4CC4)o3)cc2)c1C
Second: Cc1cccc(NC(=O)Cn2cnc3c(oc4ccccc43)c2=O)c1C
The “hERG current change (%, negative = inhibition) at 10uM” value of the first is higher: 18.7% for the first, -5.09% for the second.

First: Nc1nc(-c2c(Cl)cccc2Cl)no1
Second: CCc1c(C)nc2ccc(Br)cc2c1Cl
The “hERG current change (%, negative = inhibition) at 10uM” value of the first is higher: 10.5% for the first, 1.95% for the second.

Going from `Br.O=C(NCCNCc1ccccn1)c1ccco1` to `CCOC(=O)c1cnc2ccccc2c1NCc1ccco1`, the “hERG current change (%, negative = inhibition) at 10uM” value falls from 13.8% to -56.9%.

Going from `Cc1ccc(NC(=S)NC2CCCC2)cc1` to `O=C(NC1CCCCNC1=O)c1ccc(Cl)cc1` (centres unmarked), the “hERG current change (%, negative = inhibition) at 10uM” value rises from 4.64% to 13.1%.

Going from `O=C(COC(=O)C1CCN(S(=O)(=O)c2cccs2)CC1)Nc1ccccc1` to `COC(=O)c1ccc(NC(=O)C[n+]2ccccc2C)cc1.[Cl-]`, the “hERG current change (%, negative = inhibition) at 10uM” value rises from -30.4% to 10.1%.

First: Cn1cccc1C(=O)OCc1csc(-c2ccccc2)n1
Second: COc1ccc(C2=NOC(C(=O)N(C)Cc3ccccc3)C2)cc1 (centres unmarked)
The “hERG current change (%, negative = inhibition) at 10uM” value of the first is lower: -20.9% for the first, -18.5% for the second.

Going from `COc1ccc(NC(=O)CCCCCN2C(=O)[C@@H]3Cc4ccccc4CN3C2=O)cc1Cl` to `Cn1c(=O)cc(OCCCC(=O)NCc2ccc(F)cc2Cl)c2ccccc21`, the “hERG current change (%, negative = inhibition) at 10uM” value falls from -13.2% to -15.1%.

Going from `CCOC(=O)N1N=C(c2ccc(C)cc2)CC1(O)C(F)(F)F` (centres unmarked) to `CC1Cc2ccccc2N1C(=O)CN(C)CC(=O)Nc1ccc(OC(F)(F)F)cc1` (centres unmarked), the “hERG current change (%, negative = inhibition) at 10uM” value falls from -3.35% to -25.8%.

Going from `Cc1cc([N+](=O)[O-])nn1CCCC(=O)NCc1ccccc1` to `Cc1ccc(/C=N\NC(=O)CC(=O)NCCc2ccccc2)cc1`, the “hERG current change (%, negative = inhibition) at 10uM” value rises from -5.8% to -2.82%.

First: CN(C1CCCCC1)S(=O)(=O)c1ccc(Cl)c(C(=O)O)c1
Second: Cc1ccc([N+](=O)[O-])cc1S(=O)(=O)N1CCCCC1C(=O)O (centres unmarked)
The “hERG current change (%, negative = inhibition) at 10uM” value of the first is lower: 3.74% for the first, 22.6% for the second.

First: COc1ccc(NC(=O)C2CCCN2C(=O)NCc2ccccc2)c(OC)c1 (centres unmarked)
Second: COc1ccc(CC(NC(C)=O)C(=O)NC2CCN(c3c(Cc4ccccc4)c(C)nc4ncnn34)CC2)c(OC)c1 (centres unmarked)
The “hERG current change (%, negative = inhibition) at 10uM” value of the first is higher: -0.626% for the first, -6.32% for the second.

Compared with `CCC(=O)Nc1c(C(=O)N2CCN(c3ccccn3)CC2)cnn1-c1ccc(C)cc1`, `O=C(Cc1ccc(Cl)cc1)N1CCN(C(=O)c2ccco2)CC1` is higher in “hERG current change (%, negative = inhibition) at 10uM” value: -21.7% for the first, -12.8% for the second.

First: CNc1nnc(-c2ccc(N(C)C)cc2)s1
Second: CC(=O)C(Sc1ncnc2c1nnn2-c1ccc(F)cc1)C(=O)N(C)C (centres unmarked)
The “hERG current change (%, negative = inhibition) at 10uM” value of the first is higher: 8.65% for the first, 7.51% for the second.

Compared with `Cc1cc(Cl)cc(Br)c1OCCCNCC(C)O` (centres unmarked), `Cc1cc(Br)c(S(=O)(=O)NCc2ccncc2)cc1C` is higher in “hERG current change (%, negative = inhibition) at 10uM” value: -22.8% for the first, 7.87% for the second.

Going from `CC(=O)C1=C(O)C(=O)N(c2cccnc2)C1c1ccc(Cl)cc1` (centres unmarked) to `COc1ccc2oc(=O)c(C(=O)NCc3cccnc3)cc2c1`, the “hERG current change (%, negative = inhibition) at 10uM” value falls from 7.15% to -4.71%.

First: COC(=O)c1c(NC(C)=O)sc2c1CCCC2
Second: Cc1cc(C)n(-c2ncnc3sc4c(c23)CCCC4)n1
The “hERG current change (%, negative = inhibition) at 10uM” value of the first is higher: -7.09% for the first, -14.8% for the second.

First: CCc1cc2c(CN3CCN(CCO)CC3)cc(=O)oc2cc1O
Second: Cl.OCCN1CCN(CCCc2c3c(cc4c2CCC4)CCC3)CC1
The “hERG current change (%, negative = inhibition) at 10uM” value of the first is higher: 15.6% for the first, -4.48% for the second.

First: Cc1ccc(NC(=O)CSc2nc(NS(=O)(=O)c3ccc(C)cc3)cc(=O)[nH]2)cc1
Second: CC(=O)N1CCc2cc(S(=O)(=O)Nc3ccc(C)cc3)ccc21
The “hERG current change (%, negative = inhibition) at 10uM” value of the first is lower: -3.61% for the first, 16.9% for the second.

Going from `CCn1nccc1C(=O)Nc1ccccc1OC` to `CCOC(=O)/C(=N\Nc1ncnc2ccccc12)c1ccc(OC)cc1`, the “hERG current change (%, negative = inhibition) at 10uM” value falls from 22.7% to 15%.

Compared with `NNC(=O)CNc1cccc(Cl)c1`, `O=C(Cc1cccc(C(F)(F)F)c1)NCc1ccc(Cl)cc1Cl` is higher in “hERG current change (%, negative = inhibition) at 10uM” value: 15.4% for the first, 15.7% for the second.

First: CC(C)C(=O)Nc1ccc(N2CCN(C)CC2)c(F)c1
Second: CCOc1ccc(C(=O)N[C@H](C(=O)Nc2ccc(OC)c(S(=O)(=O)N3CCOCC3)c2)C(C)C)cc1
The “hERG current change (%, negative = inhibition) at 10uM” value of the first is higher: 14.2% for the first, -21.2% for the second.

Going from `Cc1cc(C)n(-c2nc(SCCN(C)C)c3c4c(sc3n2)CCCC4)n1` to `CN(C)CCNc1ncnc2c1sc1nc(-c3ccccc3)c3c(c12)CCCC3`, the “hERG current change (%, negative = inhibition) at 10uM” value rises from -53.7% to -11.2%.

First: O=C(CCC(=O)N/N=C/c1ccco1)N/N=C/c1ccco1
Second: COc1ccc(/C=C/C(=O)NCC(=O)N/N=C/c2cccnc2)cc1
The “hERG current change (%, negative = inhibition) at 10uM” value of the first is higher: 16.9% for the first, -14.9% for the second.

Going from `CSc1nnc2c(n1)OC(c1ccc(C(=O)O)cc1)N(C(C)=O)c1ccccc1-2` (centres unmarked) to `CC(C)n1c2ccccc2c2nnc(SCC(=O)Nc3ccccc3C(=O)O)nc21`, the “hERG current change (%, negative = inhibition) at 10uM” value rises from 1.33% to 12.8%.

First: C=C1CN(Cc2ccccc2)S(=O)(=O)c2ccccc21
Second: O=C1C2C(c3ccccc3)CC=CC2[C@H](c2ccc(C(F)(F)F)cc2)N1Cc1ccccc1 (some centres unmarked)
The “hERG current change (%, negative = inhibition) at 10uM” value of the first is lower: -33.1% for the first, -2.51% for the second.

Going from `O=[N+]([O-])c1ccc(N2CCN(S(=O)(=O)c3cnc[nH]3)CC2)cc1` to `CO/N=C(\N)c1ccc([N+](=O)[O-])cc1`, the “hERG current change (%, negative = inhibition) at 10uM” value rises from -59.8% to 3.47%.

First: COC(=O)/C(=C\c1ccc(O)cc1)c1nc2ccccc2[nH]1
Second: CC(=C/c1ccccc1)/C=N/NC(=O)c1cccs1
The “hERG current change (%, negative = inhibition) at 10uM” value of the first is higher: 22.4% for the first, -4.31% for the second.

Compared with `COc1cc(C(=O)OC(C)CN2CCOCC2)cc(OC)c1OC.Cl` (centres unmarked), `COc1ccccc1-c1nnc(SC(C)C(=O)N2CCOCC2)o1` (centres unmarked) is higher in “hERG current change (%, negative = inhibition) at 10uM” value: -2.69% for the first, -1.89% for the second.

Compared with `CCN(CC)CCN(C(=O)c1ccc(N2C(=O)CCC2=O)cc1)c1nc2cc3c(cc2s1)OCO3.Cl`, `CC(C)CC(NC(=O)c1ccc(Cl)cc1)C(=O)OCC(=O)c1ccc2c(c1)NC(=O)CO2` (centres unmarked) is higher in “hERG current change (%, negative = inhibition) at 10uM” value: -44.6% for the first, -20.6% for the second.

Going from `N=C(N)c1ccc(O)cc1` to `COC(=O)c1ccc(NC(=O)Nc2ccc(OC)cc2)cc1`, the “hERG current change (%, negative = inhibition) at 10uM” value rises from 26.1% to 29.4%.

Going from `NS(=O)(=O)c1ccc(CCNS(=O)(=O)c2ccccc2)cc1` to `COc1cccc(-c2ccc3c(c2)S(=O)(=O)c2cccc(C(=O)O)c2C3=O)c1OC`, the “hERG current change (%, negative = inhibition) at 10uM” value rises from -0.299% to 15.1%.

First: CCCCOCCCNC(=O)C1CCCCC1
Second: CC1=C(C(=O)Nc2ccc(C(=O)NCCCN3CCCCC3)cc2)SCCO1
The “hERG current change (%, negative = inhibition) at 10uM” value of the first is higher: -1.13% for the first, -24.8% for the second.

Compared with `COc1ccc(S(=O)(=O)Nc2cc(C(=O)NC3CCCCCC3)ccc2N2CCOCC2)cc1`, `Cc1ccc(C(C(=O)NC2CCCCC2)N(Cc2cccnc2)C(=O)C2COc3ccccc3O2)o1` (centres unmarked) is lower in “hERG current change (%, negative = inhibition) at 10uM” value: -46.7% for the first, -59.7% for the second.

First: CCCOc1ccc(C(C)=O)cc1CSCCC#N
Second: CC(=O)c1cccc(NC(=O)C(C)OC(=O)CCCN=C2NS(=O)(=O)c3ccccc32)c1 (centres unmarked)
The “hERG current change (%, negative = inhibition) at 10uM” value of the first is lower: -1.08% for the first, 19.1% for the second.

Going from `COc1cc(NC(=O)c2nn(C)c3c2CS(=O)(=O)c2ccccc2-3)cc(OC)c1` to `COc1cc2[nH]c(=S)nc(NCc3ccccc3)c2cc1OC`, the “hERG current change (%, negative = inhibition) at 10uM” value rises from -11.4% to 3.91%.

Going from `Cc1c(NC(=O)C(C)Sc2nnc(-c3ccccc3)o2)c(=O)n(-c2ccccc2)n1C` (centres unmarked) to `COc1ccc([N+](=O)[O-])cc1COc1cc(C)cc2oc(=O)cc(-c3ccccc3)c12`, the “hERG current change (%, negative = inhibition) at 10uM” value falls from 1.32% to 0.0853%.

Compared with `CCCN1C(=S)SC(C)(C)C1/[N+]([O-])=C/c1cccnc1` (centres unmarked), `Cc1ccc2cc3c(NC(=O)CC(C)C)nn(C)c3nc2c1` is higher in “hERG current change (%, negative = inhibition) at 10uM” value: -7.57% for the first, 2.71% for the second.

Compared with `COc1ccc(C2=NN(C(=O)CSc3nc4ccccc4s3)C(c3ccc(F)cc3)C2)cc1` (centres unmarked), `Fc1ccc(-c2cn3cc(C(F)(F)F)cc(Cl)c3n2)cc1` is higher in “hERG current change (%, negative = inhibition) at 10uM” value: 6.36% for the first, 6.92% for the second.

Compared with `Cc1cccn2cc(-c3c[nH]c4ccccc34)nc12`, `CC1CCOC2(O1)C(=O)N(CN1CCN(c3ccccc3F)CC1)c1ccccc12` (centres unmarked) is higher in “hERG current change (%, negative = inhibition) at 10uM” value: -12.7% for the first, 0.531% for the second.

Going from `CC(C)c1ccc(NC(=S)NNC(=O)c2cccs2)cc1` to `COCCNC(=O)c1cccc(OC2CCN(Cc3ccc(F)cc3OC)CC2)c1`, the “hERG current change (%, negative = inhibition) at 10uM” value falls from 14.1% to -23.1%.

Going from `Cc1cc2cccc(C)c2nc1SCC(=O)NCC1CCCO1` (centres unmarked) to `Cc1[nH]c2ccc(C(=O)NCCN3CCCCCC3)cc2c1C`, the “hERG current change (%, negative = inhibition) at 10uM” value rises from -2.53% to -2.23%.

With `CC(C)C[C@H](NC(=O)OC(C)(C)C)C(=O)N[C@@H](CO)[C@H](O)[C@@H]1C[C@@H]1C(=O)N(C)C` the “hERG current change (%, negative = inhibition) at 10uM” value was 5.96%.
